Measured values from PubChem BioAssay (Tox21).
Values joined by “and” are separate entries in the source; they are usually repeats but may differ in a detail not shown here. Identical values can stand only once. The shares of active, inactive and inconclusive entries below differ from those in the screen. Potencies of inconclusive entries are doubtful fits and often do not repeat. Active and inactive are the calls of the source. Calls come from the whole dose curve; as a rule, active = well fitted activation curve with a large enough effect in the signal ratio in the repeat runs (not every such curve was filed as active); inconclusive = weak or mixed curves, or effect the other way; inactive = no such curve, though single readings can be large or run the other way; the % refers to the signal ratio.

Assay: qHTS assay for small molecule agonists of the antioxidant response element (ARE) signaling pathway (AID 743202)
Settings: HepG2 ARE-bla reporter, beta-lactamase FRET, 16 h; activation: at 73.3 µM (top of the series) unless noted
How it was run: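 Steps: seed ARE-bla HepG2 cells (2,000/well); incubate 5 h at 37 C; add compounds by pin tool; incubate 16 h at 37 C; add FRET substrate; read fluorescence after 2 h at RT.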
% is set by controls: 0 for no effect and ±100 for the full control effect; potency is the fitted concentration of half-maximal effect; tags give direction and shape of the fitted curve.

Row | Compound | Potency | activation
1 | Cc1c(COC(=O)[C@@H]2[C@H](/C=C(\Cl)C(F)(F)F)C2(C)C)cccc1-c1ccccc1 | inactive | 
2 | CN(C)[C@@H]1C(=O)C(C(N)=O)=C(O)[C@@]2(O)C(=O)C3=C(O)c4c(O)ccc(Cl)c4[C@@](C)(O)[C@H]3C[C@@H]12 | inconclusive: 55.6 µM | 
3 | COc1ccc(/C(=C/C(=O)N2CCOCC2)c2ccc(Cl)cc2)cc1OC |  | inconclusive: 17.1%
4 | CCN1CCC2(CC1)COc1cc3c(cc12)N(C(=O)c1ccc(-c2ccc(-c4nnc(C)o4)cc2C)cc1)CC3 | inconclusive: 39.9 µM [falling, partial curve] | 
5 | CC(C)C1CCC(Cc2ccc(Cl)cc2)C1(O)Cn1cncn1 (stereo unspecified) | active: 15.2 µM | 
6 | Cn1cc(C2=C(c3cn(C4CCN(Cc5ccccn5)CC4)c4ccccc34)C(=O)NC2=O)c2ccccc21 | inconclusive: 10.6 µM [falling, partial curve, poor fit] | 
7 | [O]=[Cr](=[O])([OH])[O][Cr](=[O])(=[O])[OH] | inconclusive: 69.2 µM [rising, single point] and inconclusive: 68.5 µM [rising, single point] | 
8 | CC(C)=CC1C(C(=O)OCc2coc(Cc3ccccc3)c2)C1(C)C (stereo unspecified) | active: 54.5 µM and active: 30.6 µM | 
9 | CN1C(=O)[C@@H](NC(=O)c2cc3ccccc3[nH]2)N=C(c2ccccc2)c2ccccc21 | inconclusive: 23.7 µM [falling, partial curve] | 
10 | N#Cc1c2ccccc2cc2ccccc12 | inconclusive: 54.4 µM [rising, partial curve] | 
11 | O=C(N[C@H]1N=C(c2ccccc2F)c2cccc3c2N(CC3)C1=O)c1cc2ccccc2[nH]1 |  | inconclusive: -1.35%
12 | C[C@@H]1O[C@@H](O[C@@H]2C=C3CC[C@@H]4[C@H](CC[C@]5(C)[C@@H](c6ccc(=O)oc6)CC[C@]45O)[C@@]3(C)CC2)[C@H](O)[C@H](O)[C@H]1O | inconclusive: 0.266 µM [rising, full curve] | 
13 | c1ccc2cc3c(cc2c1)-c1cccc2cccc-3c12 | inconclusive: 42.7 µM [rising, partial curve] | 
14 | ClC1=C(Cl)[C@]2(Cl)[C@@H]3[C@H]4C[C@H]([C@@H]5O[C@H]45)[C@@H]3[C@@]1(Cl)C2(Cl)Cl | inconclusive: 61.1 µM [rising, partial curve, poor fit] | 
15 | CC1CCCC1 | inconclusive: 60.1 µM [rising, single point] | 
16 | CC(=O)/C=C/c1ccccc1 | inconclusive: 68.6 µM [falling, partial curve, poor fit] and inconclusive: 43.3 µM [falling, partial curve, poor fit] | 

Row | Compound | Potency | activation
17 | CC(C)C(Nc1ccc(C(F)(F)F)cc1Cl)C(=O)OC(C#N)c1cccc(Oc2ccccc2)c1 (stereo unspecified) | inconclusive: 69.1 µM | 
18 | CC1(C)[C@H](C(=O)O[C@H](C#N)c2cccc(Oc3ccccc3)c2)[C@@H]1/C=C(\Cl)C(F)(F)F |  | inactive: -9.94%
19 | c1ccc2c(c1)cc1ccc3cccc4ccc2c1c34 | inconclusive: 62.3 µM [rising, partial curve] | 
20 | CN(C)CCc1c[nH]c2ccc(O)cc12 |  | inconclusive: -0.804%
21 | CC(C)[C@H](C(=O)OC(C#N)c1cccc(Oc2ccccc2)c1)c1ccc(OC(F)F)cc1 (stereo partly specified) |  | inactive: -0.507%
22 | CCOP(=O)(OCC)O/C(=C/Cl)c1ccc(Cl)cc1Cl |  | inconclusive: 11.3%
23 | O=C(O)C(F)(F)C(F)(F)C(F)(F)C(F)(F)C(F)(F)C(F)(F)C(F)(F)F | active: 27.3 µM and active: 21.6 µM | 
24 | C[C@]12C=CC3=C4CCC(=O)C=C4CC[C@H]3[C@@H]1CC[C@@H]2O | active: 6.07 µM | 
25 | C#CC1(O)CCCCC1 |  | inactive: 0.363%
26 | FC(F)C(F)(F)OCC(Cn1cncn1)c1ccc(Cl)cc1Cl (stereo unspecified) |  | inconclusive: 28.5%
27 | CCCN(CCC)CCc1c[nH]c2ccccc12 |  | inconclusive: -20.5%
28 | C[C@]12Cc3cn[nH]c3C[C@@H]1CC[C@@H]1[C@@H]2CC[C@@]2(C)[C@H]1CC[C@]2(C)O | active: 26.6 µM | 
29 | CO/N=C(/C1=NOCCO1)c1ccccc1Oc1ncnc(Oc2ccccc2Cl)c1F | active: 0.544 µM | 
30 | OCCN(CCO)CCO | inactive | 
31 | CCOP(=S)(OCC)O/N=C(\C#N)c1ccccc1 |  | inconclusive: 12.9%
